Values marked as one replicate rest on one cluster of the flow cell; about a third of the high ones do not repeat.
Test system: ATP
Experiment: switch fluorescence ratio, 500 uM ATP over buffer (Cy3 cluster intensity, sum of 5 cycles each) (fold (ratio)); higher = stronger signal-on switching upon ATP binding; sequences stand for … in TCGTCGGCAGCGTCAGATGTGTATAAGAGACAGTTTTTTTTTTTTTTTTTTTTTTTTT…TC
Conditions: aptamer strand: ATP DNA aptamer (quencher-CACCTGGGGGAGTATTGCGGAGGAAGG + anchor), 100 nM annealed; ATP concentration: 500 uM; one replicate
Procedure, shortened: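 The quencher-labelled ATP aptamer, at 100 nM, was annealed to Cy3-labelled switching-strand clusters on a modified Illumina MiSeq flow-cell. The clusters were imaged in selection buffer, then after 15 min with 500 uM ATP at 22 °C, and this buffer/ATP cycle ran five times with NaOH stripping and re-annealing between runs. Per-cluster fluorescence ratios, summed target-cycle over summed buffer-cycle Cy3 intensity, were averaged per switch-domain sequence. Clusters outside 100-1000 RFU were excluded.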
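Note: ATP exposure 15 min at 22 °C before imaging.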

Sequence	switch fluorescence ratio
ACAGGAACAC	1.03
GGCCCCGGCT	1.04
CGATTAGGCG	1.03
TGTCCTCGGC	1.18
TTATATACCC	1.02
CACCACAGAA	1.05
CACAGACGTG	1.06
TTATCCGTGA	1.18
CCGGGAACCA	1.03
CTCAAATAAG	1.03
TAGCCCGAGA	1.01
TAACGAGTTG	0.987
TAATTGTAAA	1.02
TGTGTTCGTT	0.992
TCGATCACTG	1.02
ACACAACAGC	1.09
GAAACATAAA	1.02
TTCAGCTACG	1.06
GAGTCCCTAT	1.05
GAGCGGTCGA	1.04
CAAGCTAGAC	3.64
AGTGCGTCTG	0.972
AAAGAAAATG	1.03
GATACTAAAT	1.01
TCGGCTGGGC	0.964

Sequence	switch fluorescence ratio
TCAGCCGTGG	0.994
GGATCCGTCG	0.992
CCCGTATTGA	1.2
ATGTACACGG	1.09
GATCTCTCAC	1.06
GGGTTGCTGC	0.973
GGCATTCGGT	0.99
CCACTAGGGT	1.1
AGAGCGGCCG	1.03
CTTACACGAA	1.02
TGGCCAGTCG	1
TTTGTGATAT	1.02
AGTCTAGGGA	1
TTCGCACGGT	0.997
ATTTATCGTT	0.979
GACCTGTTTA	0.982
ATAGCGTAA	1.01
TGAGGTGTG	0.971
TTCAACAGGC	0.961
CTGACTCGCT	2.45
CGACCTGTCG	1.08
GCGCTGTCAC	1.44
CGTACTTCAA	1.05
CTCCGTCGAG	2.42
CCGCGGGTCT	1.25

Sequence	switch fluorescence ratio
ATCAAGTGCA	1.04
TCGCGGTAGT	0.986
CCGTAAGAT	3.72
TACGGAAGTC	1
ATTTCTGGGC	0.971
AAGTTGGCGG	1.01
CATGGATTC	0.989
ACGGTACTGC	1.46
TGCGTCCGT	1.07
GGTGTACGCC	1.04
CCGTTCTTGG	1
AATAGCCCTT	0.994
TTCGAATATC	1.11
GTGGACGAAA	1.05
TATCATAATT	1.01
ACAAACGATT	1.24
GACGCTTATA	4.13
ATCCAGGCAG	1.04
CGTTAGTTAG	1
TAGATTGTTG	0.96
GCGGGGGCCT	0.937
AAAGTACTTA	1.12
GCTGGCCCGG	1.05
TAAACACTGC	1.08
ATCCAATGGA	1.02

Sequence	switch fluorescence ratio
TAGGAACTGT	0.904
CGCCCTAAC	1.45
CGACTATTGC	1.19
GGGGCGGGCT	0.985
AATCGAGGG	1.02
AGGCGATAT	1.18
ATCCAATAGG	1.04
GAAATCCAGC	0.977
TGTTTAGCGG	0.986
CTGAGTCAGT	1.02
TCCGCTCAAT	4.16
TTACAGGAAA	1.05
ATTTGTCT	1.03
ACTTGCTTGG	1.05
AACCTCTGTT	1.04
CCGGAGAATA	4.98
GGCGTGGCAG	1.02
CAGGTCACTT	1.04
CCCATGAGCT	1.01
ACCGCCACGG	0.995
TTGTCATAGT	0.957
TTTACTTCAG	1.01
ACACACGTC	1.47
CGAGATGATG	0.952
AAACTTAGCC	0.998

Sequence	switch fluorescence ratio
CAAATGCTGT	1.01
ATATTTTACA	1.05
CATAACATGC	1.1
ATTCGCGACC	1.11
TAAAAGCCGG	0.967
TAATCGTAGT	1.03
ATCTCCCGAA	1.1
TCCGGCAGAG	1.1
AGGAAGTCAC	1.11
GTTATGATTC	1.04
AGGCGTTTTC	0.967
GAGGCCCAAG	1.02
GTTCCCTGGG	1.07
CTGGCTAGAT	0.983
GCATCCTGGG	0.982
AAAAGTACAG	1.03
AAATTCCCCG	1.03
TTGCGGTTCT	1.04
GTTATGAGGC	1.01
GAAGGTGCGG	1.01
CGGATGCTAT	0.993
ATAGCCTCCT	1.03
CCAATAAACG	1.05
TCCGGTCGTC	1.03
TTGTGACCCG	1.09

Sequence	switch fluorescence ratio
GAATTACCTT	1.06
AACCTCTATG	1.01
CCCAGCAGTT	2.03
AACGTTGTGG	1.02
AAAGTATAAG	0.964
TCGTTGATAG	1.03
TCTGATCGGG	1.03
GATGTGTCAA	1.02
CATTTTTTCT	1.03
GGGTGGTACT	1.01
CATAGAGCGA	1.01
CGGGTCTATA	1.01
GAGAGCAGAG	1.05
CTAAGCTTGC	0.991
CAGACTGATA	1.02
CGCTCAACAC	2.3
AGTTTTCGAA	0.958
CGAGGTTAGT	1.03
GCCCAGGTTT	0.995
CAAGTGGAGA	1.01
GAAGAGCTGG	0.973
CGAAGGCTT	0.969
CAGCGTATTA	1.02
CAGTACGGC	1.07
GGATCATTCC	1.22

Sequence	switch fluorescence ratio
ATGCTACGAG	1.03
AACACGCTTC	1.05
CGTACAGTTT	0.971
GAGCATAT	1.28
TCAATTTATT	1
GAAGAGGTTA	1.03
ATCAATTTTA	0.99
TCAACAATTT	0.99
CCGGCACTCA	1.43
AAGCCTGGTC	0.976
CCCCGACATT	1.85
GGGTACCGGA	0.982
TAGGTTTATC	1.02
GCGGTCACCT	1.13
TGAACTCTGG	0.969
TTGGTCGGCC	0.957
AACAACTCA	1.02
CCTCTTCCTG	1.11
TGGGCAATCT	1.27
CCTACTTAAT	0.986
GCAGGCTGGG	0.981
TTAATATTGC	1.03
CCAGACTCTC	1.08
CCAGATCATA	0.98
TGCCTGTGGC	1.06

Sequence	switch fluorescence ratio
GGAGTCAGGA	1
TCGTCCTGCA	1.66
CAACTAATGT	0.963
CAGGCATGAT	1.02
CACGGCGGTG	0.992
GAGAGGTCAG	1.03
ATGCGGTTAA	1.01
AGAAGGGTCG	1.01
AACCCGATAT	1.05
CAGTTGACTG	1.02
GCATATAGAT	1.04
AGCGCTAGTT	1.01
ACGTCGGTTG	1.04
CAACGAAGGA	1
AGCATGGTGA	1.05
CGCGTGCGCC	1.01
GAAGTTTTAG	0.969
TTGCGAGACG	0.949
TGAGCCAGAG	1.02
GCCACTTAAA	0.996
ACTAATGCAC	1.09
TACGGAAG	1.03
AAGTGCCACG	0.996
GGCGCAGTTA	1
CGCGGCTACT	1.75
